The campaign covered roughly 310,000 compounds. About 2,200 (0.71%) showed an effect of 50% or more. The effect is printed as a negative number. The list shows a part of the results.

For the test, the target named is human ether-à-go-go-related gene (hERG) potassium channel (human, UniProt Q12809). Briefly: primary screen, population patch clamp on CHO cells stably expressing hERG.
human ether-à-go-go-related gene (hERG) potassium channel, sequence (Q12809 whole entry, looked up): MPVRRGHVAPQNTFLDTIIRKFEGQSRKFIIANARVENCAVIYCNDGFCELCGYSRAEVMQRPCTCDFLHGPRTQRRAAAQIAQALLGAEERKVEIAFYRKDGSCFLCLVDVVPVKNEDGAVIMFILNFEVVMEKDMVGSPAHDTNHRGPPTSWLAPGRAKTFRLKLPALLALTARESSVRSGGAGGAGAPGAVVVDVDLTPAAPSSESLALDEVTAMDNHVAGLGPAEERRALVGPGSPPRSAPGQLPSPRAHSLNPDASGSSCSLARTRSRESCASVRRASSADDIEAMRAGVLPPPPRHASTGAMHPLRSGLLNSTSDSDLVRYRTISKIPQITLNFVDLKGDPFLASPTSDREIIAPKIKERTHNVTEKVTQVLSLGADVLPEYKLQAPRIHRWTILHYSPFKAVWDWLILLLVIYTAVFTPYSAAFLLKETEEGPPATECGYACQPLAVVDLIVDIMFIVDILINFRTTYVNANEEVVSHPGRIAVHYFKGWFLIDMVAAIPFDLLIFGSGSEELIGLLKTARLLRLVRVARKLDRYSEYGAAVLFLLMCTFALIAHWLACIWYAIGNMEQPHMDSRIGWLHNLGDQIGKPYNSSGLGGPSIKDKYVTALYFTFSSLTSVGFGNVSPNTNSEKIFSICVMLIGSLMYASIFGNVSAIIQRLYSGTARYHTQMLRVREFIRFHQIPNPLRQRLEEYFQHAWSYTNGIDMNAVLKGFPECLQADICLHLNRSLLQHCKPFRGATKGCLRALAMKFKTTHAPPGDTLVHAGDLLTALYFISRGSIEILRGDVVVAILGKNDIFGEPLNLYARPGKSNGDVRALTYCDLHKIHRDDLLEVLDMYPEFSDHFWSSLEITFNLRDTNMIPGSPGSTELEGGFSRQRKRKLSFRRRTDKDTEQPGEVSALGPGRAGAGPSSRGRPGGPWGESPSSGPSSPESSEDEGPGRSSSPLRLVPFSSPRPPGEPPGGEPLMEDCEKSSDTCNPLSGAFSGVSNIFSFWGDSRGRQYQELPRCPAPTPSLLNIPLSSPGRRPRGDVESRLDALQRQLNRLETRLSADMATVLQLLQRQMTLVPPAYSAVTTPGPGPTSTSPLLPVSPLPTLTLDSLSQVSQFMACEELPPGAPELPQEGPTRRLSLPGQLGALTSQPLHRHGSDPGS
Regarding `COc1ccc(OC)c(NC(=O)Cc2cccs2)c1`, the “hERG current change (%, negative = inhibition) at 1uM” value is 14.6%.
In the case of `Cc1ccc(S(=O)(=O)Nc2nc(C)c(C(=O)NNS(=O)(=O)c3cc(C)ccc3C)s2)cc1`, the “hERG current change (%, negative = inhibition) at 1uM” value stood at 13.1%.
With `Cn1c(=O)oc2cc(S(=O)(=O)Nc3ccccc3F)ccc21`, the “hERG current change (%, negative = inhibition) at 1uM” value came to 14%.
In the case of `C=CCOc1ccccc1CNc1cccc(F)c1` it was 19%; in that of `COc1cc(/C=N/NC(=O)c2ccccc2O)ccc1OC(=O)CC1SC(=O)NC1=O` (stereo not drawn), 5.67%.
For `O=C(O)c1cccc(NC2=C(N3CCOCC3)C(=O)c3ccccc3C2=O)c1`, the “hERG current change (%, negative = inhibition) at 1uM” value amounted to 10.3%.
As to `COc1cc(OC)cc(C(=O)NC(C)c2cnn(-c3ccccc3C)c2C)c1` (stereo not drawn), the “hERG current change (%, negative = inhibition) at 1uM” value is listed as 7.56%.
In the case of `Cl.O=C(CCS(=O)(=O)c1ccccc1)N(CCCN1CCOCC1)c1nc2ccccc2s1` it was -3.95%.
Turning to `CCOc1ccc(OCC(=O)Nc2ccc(OC)cc2)cc1`, the “hERG current change (%, negative = inhibition) at 1uM” value stood at 19.6%.
Under `CS(=O)(=O)c1ccc(Cl)c(NC(=O)CSc2nc3ccccc3c(=O)n2CCCN2CCOCC2)c1` stands -1.98%.
In the case of `CC(=O)Nc1ccc(N2CCN(c3ccc(F)cc3)CC2)cc1` it was 12.2%; in that of `CCOC(=O)c1ccccc1NC(=O)CSc1nc2ccccc2o1`, 2.67%; in that of `S=C(NCC1CCCO1)NC1CC1` (stereo not drawn), 2.37%.
Regarding `Cn1nc(C(=O)NCC2CCCO2)c2ccccc2c1=O` (stereo not drawn), the “hERG current change (%, negative = inhibition) at 1uM” value amounted to 0.281%.
For the molecule `C=C1CCN(C(C)C(=O)OC)S(=O)(=O)c2ccccc21` (stereo not drawn), the “hERG current change (%, negative = inhibition) at 1uM” value is 5.5%.
Regarding `COc1ccccc1NC(=O)CCN1C(=O)/C(=C/c2cc(OC)c(OC)c(OC)c2)SC1=S`, the “hERG current change (%, negative = inhibition) at 1uM” value worked out at 11.8%.
As to `COc1cccc(C(=O)Nc2sc3c(c2C#N)CCN(C(C)=O)C3)c1`, the “hERG current change (%, negative = inhibition) at 1uM” value is reported as 8.32%.
Regarding `Cc1ccccc1C(C(=O)NCc1ccco1)N(CC1CCCO1)C(=O)Cn1nnc2ccccc21` (stereo not drawn), the “hERG current change (%, negative = inhibition) at 1uM” value came out at 1.9%.
Under `c1ccc(-n2nnnc2SCCCSc2nc3ccccc3s2)cc1` stands 14.6%; under `Cc1cccn2c(CNCCSc3nccn3C)c(C(=O)N3CCCCC3)nc12`, 8.67%.
As to `COc1ccc(-c2csc(NC(=O)Cn3nc(C)cc3C)n2)cc1`, the “hERG current change (%, negative = inhibition) at 1uM” value came to 16.5%.
As to `Cc1cc(NC(=O)CSc2nnc(-c3ccoc3C)n2N)no1`, the “hERG current change (%, negative = inhibition) at 1uM” value amounted to 14.8%.
As to `Cc1nc(S(=O)(=O)c2ccc(Cl)cc2)c(NCc2ccccc2)o1`, the “hERG current change (%, negative = inhibition) at 1uM” value worked out at 16.4%.
Under `COc1cc(OC)cc(C(=O)OCC(=O)Nc2ccc(N3CCCCC3)cc2)c1` stands 8.53%.
Consider `CCOC(=O)c1ccc(NC(=O)CSc2ccc(-c3ccncc3)nn2)cc1`, for which the “hERG current change (%, negative = inhibition) at 1uM” value was determined as 9.76%.
In the case of `Cc1cc(OCC(=O)NNC(=O)c2cccs2)ccc1Br` it was 13%.
As for `CCN(CC)C(=O)C(=O)N/N=C/c1cccc(Br)c1`, the “hERG current change (%, negative = inhibition) at 1uM” value is listed as -5.32%.
As to `CC(C)CCNC(=O)C(c1ccco1)N(CCCO)C(=O)Cn1nnc(-c2ccc(F)cc2)n1` (stereo not drawn), the “hERG current change (%, negative = inhibition) at 1uM” value is on record as -9.57%.
As for `CCCCC1CCC(C(=O)N(CC(C)C)c2c(N)n(CCCC)c(=O)[nH]c2=O)CC1` (stereo not drawn), the “hERG current change (%, negative = inhibition) at 1uM” value was 10.8%.
For the molecule `CCCCOc1ccc(C(=S)N2CCC(C(N)=O)CC2)cc1`, the “hERG current change (%, negative = inhibition) at 1uM” value was 11.2%.
In the case of `CN(C(=O)CN1C(=O)S/C(=C\c2ccccc2Cl)C1=O)C1CCS(=O)(=O)C1` (stereo not drawn) it was 6.12%; in that of `O=C(O)c1cc([N+](=O)[O-])ccc1NCCCc1ccccc1`, 16.9%; in that of `CCCCOc1ccc(-c2[nH]ncc2C=O)cc1`, 9.46%.
Under `Cc1ccc(-n2c3c(cc(C(=O)NC4CCSC4=O)c2=O)C(=O)CCC3)cc1` (stereo not drawn) stands 2.02%.
In the case of `c1coc(CSCc2cn3cccnc3n2)c1` it was 11.7%; in that of `Fc1ccc(CN2CCN(c3ccc(Cl)cc3)CC2)cc1`, 3.3%; in that of `O=C(COC(=O)c1ccc2c(c1)OCO2)Nc1ncc(Cl)cc1Cl`, 16.3%.
As for `CCn1c(C)nc2cc(C(=O)N/N=C/c3ccc(OC)c(O)c3)ccc21`, the “hERG current change (%, negative = inhibition) at 1uM” value came to 2.59%.
For `Cc1ccc(C(=O)NCCc2ccccn2)cc1S(=O)(=O)N1CCOCC1`, the “hERG current change (%, negative = inhibition) at 1uM” value is 7.29%.
Under `CC(C)Oc1ccc(CCN)cc1Cl.Cl` stands 1.19%.
In the case of `O=C(CSc1nc2ccsc2c(=O)n1-c1ccccc1)N1CCCC1` it was 6.38%; in that of `COc1ccc(OCC(=O)Nc2ccccc2C(=O)NC2CC2)cc1`, 13%; in that of `COC(=O)c1c(NC(=O)C2CC2)sc2c1CCN(C(C)=O)C2`, 1.12%.
Under `O=C(O)C(=O)O.O=S(=O)(c1ccc2ccccc2c1)N1CCN(C2Cc3ccccc3C2)CC1` stands 1.28%; under `CCOC(=O)CSc1nnc(NC(=O)C2CC(=O)N(c3ccc(F)cc3)C2)s1` (stereo not drawn), 14.1%.
Regarding `NC(=O)c1ccc(N2CCN(S(=O)(=O)c3ccccc3)CC2)c([N+](=O)[O-])c1`, the “hERG current change (%, negative = inhibition) at 1uM” value worked out at 7.92%.
Take `CCOCC(=O)Nc1cc(-c2cn3cccnc3n2)ccc1C`: the “hERG current change (%, negative = inhibition) at 1uM” value is recorded as 10%.
With `COC(=O)c1ccc(C(=O)Nc2ccc3c(c2)C(=O)NC3=O)cc1`, the “hERG current change (%, negative = inhibition) at 1uM” value came out at 8.58%.
Regarding `CC(NS(=O)(=O)c1ccc(F)cc1)C(=O)Nc1ccc2c(c1)OCCO2` (stereo not drawn), the “hERG current change (%, negative = inhibition) at 1uM” value was found to be 14.7%.
In the case of `CCOC(=O)c1cc(NC(=O)N(C)C2CCCCC2)c(C)nc1C` it was 12%; in that of `O=C(Nc1ccc(F)cc1)C(Sc1nnc2ccccn12)c1ccccc1` (stereo not drawn), 10%.
Turning to `O=S(=O)(c1cccc(C(F)(F)F)c1)N1CCN(c2ccccc2)CC1`, the “hERG current change (%, negative = inhibition) at 1uM” value is on record as -7.98%.
Take `Cc1ccc(C)c(S(=O)(=O)NCC(=O)N2CCCC2)c1`: the “hERG current change (%, negative = inhibition) at 1uM” value is 12%.
In the case of `Cc1cc(-c2cccnc2)c(C#N)c(SCC#N)n1` it was 9.79%; in that of `CCn1c(O)c(C=Nc2cc(Cl)ccc2Cl)c(=O)n(CC)c1=O`, 9.47%; in that of `COc1cc(/C=N/NC(=S)Nc2cccc(S(=O)(=O)N(C)C)c2)cc(OC)c1O`, -4.14%.
Under `COc1ccc(COc2cc(-c3cccc(OC)c3)nc3ccc(NC(=O)c4ccc(Cl)cc4)cc23)cc1` stands 9.64%; under `CCN1C(=O)N(CC)C2C1N(CO)C(=O)N2CO` (stereo not drawn), 16.3%; under `COc1ccc(OC)c(CNC(=O)CCC(=O)N2Cc3ccccc3Oc3ncccc32)c1`, -10.8%.
Regarding `Cc1ccc(NC(=O)COC(=O)c2ccccc2Nc2ccccc2)cc1`, the “hERG current change (%, negative = inhibition) at 1uM” value is on record as 10.7%.
Regarding `Cc1nc(Nc2ccc(F)cc2)[nH]c(=O)c1CCC(C)C`, the “hERG current change (%, negative = inhibition) at 1uM” value was 19.2%.
In the case of `COC(=O)n1ccc(C(=O)Nc2ccccc2F)n1` it was -7.2%; in that of `COc1ccc(C2c3ccsc3CCN2C(=O)NC(C)(C)C)cc1` (stereo not drawn), 3.01%; in that of `CS(=O)(=O)NCc1nnc(SCC(=O)NC2CCCCC2)n1-c1ccc(F)cc1`, 10.3%.
Regarding `Nc1c(C(=O)CSc2nnc(Nc3ccc(F)cc3)s2)c(=O)[nH]c(=O)n1C1CC1`, the “hERG current change (%, negative = inhibition) at 1uM” value was found to be 3.38%.
In the case of `O=C(Nc1ccncc1)c1ccccc1-c1ccccc1` it was 12.5%; in that of `COc1ccc(-c2cc(C(F)(F)F)nc(N3CCN(Cc4ccccc4)CC3)n2)cc1OC`, 23.2%; in that of `O=C(NNC(=O)c1ccccc1F)c1ccc2[nH]c(=O)c(=O)[nH]c2c1`, 3.21%.
In the case of `Cc1cc(NCc2ccccc2Cl)n2nnnc2n1` it was 17.8%; in that of `O=C(Nc1cccc(-c2nc3cccnc3s2)c1)c1cccnc1Cl`, 4.08%; in that of `CC(C)(C)c1csc(NC(=O)c2ccc3nccnc3c2)n1`, -6.96%.
Take `CCCN(CCC)CCNC(=O)Cn1cnc2sc(C)c(S(=O)(=O)N3CCOCC3)c2c1=O`: the “hERG current change (%, negative = inhibition) at 1uM” value worked out at 13.6%.
With `Cc1ccc2sc(N3CCN(C(=O)C4=COCCO4)CC3)nc2c1C`, the “hERG current change (%, negative = inhibition) at 1uM” value is given as 5.72%.
In the case of `CCCCOc1ccc(N=Cc2ccc[nH]2)cc1` it was 23.1%.
`CSc1nnc(-c2ccc([N+](=O)[O-])cc2)o1`: the “hERG current change (%, negative = inhibition) at 1uM” value stood at 13.8%.
Consider `CCN1CCCC1CNC(=O)c1[nH]c2ccc(OC)cc2c1C` (stereo not drawn), for which the “hERG current change (%, negative = inhibition) at 1uM” value is reported as -27.5%.
Under `Cc1onc(C(=O)Nc2ccccc2C(F)(F)F)c1[N+](=O)[O-]` stands 16%; under `O=C1CN(C(=O)COC(=O)c2cccnc2Cl)c2ccccc2N1`, 11.1%; under `Cc1cc2cc(C)c(SCC(=O)NCc3ccco3)nc2cc1C`, 7.35%.
Under `O=[N+]([O-])c1ccc(Oc2ccc(S(=O)(=O)N3CCOCC3)cc2)cc1` stands -3.54%; under `CCc1ccc(Nc2ncc3c(n2)CC(C)(C)CC3=O)cc1`, 6.45%.
With `Cc1cc(C)c(NC(=S)N(Cc2cccnc2)Cc2ccco2)c(C)c1`, the “hERG current change (%, negative = inhibition) at 1uM” value worked out at 6.35%.
Regarding `COc1cccc(CC(=O)Nc2nc3c(s2)C(=O)CC(C)(C)C3)c1`, the “hERG current change (%, negative = inhibition) at 1uM” value is 10.7%.
Under `Cc1ccc(NC(=O)c2ccc3c(=O)n4c(nc3c2)CCCCC4)cc1F` stands -5.54%; under `O=C(NCC1CCCO1)c1ccc(NC(=O)c2cccc(Br)c2)cc1` (stereo not drawn), 10.4%; under `COc1ccc(OC)c(/C=C2\SC(=S)N(N3CCOCC3)C2=O)c1`, 14.8%.
In the case of `CN1CCN(c2cc(N3CCCC3)c([N+](=O)[O-])cc2F)CC1` it was 8.13%; in that of `O=C(Cn1cnc2ccccc2c1=O)c1ccc2ccccc2c1`, 2.67%.
Under `CCN1CCN(C(=O)Nc2cccc3ccccc23)CC1` stands -9.46%.
Take `CCOC(=O)c1nn(-c2ccc(C)c(C)c2)c(=O)c(C#N)c1C`: the “hERG current change (%, negative = inhibition) at 1uM” value came to 14.3%.

(Values after PMC4336329 (PLoS ONE, 2015).)
